This passage reports survival results from PubChem BioAssay AID463173 (ICCB-Longwood Screening Facility, Harvard Medical School, 2010).

Molecules are shown by their SMILES. Among all 52,000 compounds or so, about 4,300 (8.3%) were called active. No stated cut-off is given here; in the data, active means survival mostly below about 52% (no sharp cut-off); inactive means mostly above about 56%. This is one part of the list.

The experiment has as its system DeltatarO mutant. Nature of the experiment: growth inhibition of S. aureus wild type versus tarO mutant, primary screen, teichoic acid synthesis inhibitors, RN4220, OD600 (AID 463173). The conditions noted are these: OD600, 18 h, stronger effect = lower value, screened at 18.75 µg/mL (by protocol).
On to `Cc1nn(C(=O)c2c(F)cccc2F)c(C)c1S(=O)(=O)N1CCOCC1`, for which the survival is inactive: 84%. The same measure for `COc1ccc(CCNC(=O)c2ccc3c(c2)N(Cc2ccccc2F)C(=O)c2ccccc2S3(=O)=O)cc1OC`: inactive: 106%; for `Cc1ccc(CN(Cc2ccco2)C(=O)COc2cc(C)c(Cl)c(C)c2)cc1`: inactive: 58%. Regarding `O=C(NCCc1ccccc1)c1cc(S(=O)(=O)N2CCCCC2)c[nH]1`, the survival was inactive: 69%. For the compound `CCOC(=O)c1cnc2c(ccc3ccccc32)c1Nc1cccc(OC)c1`, the survival was active: 29%. The same measure for `CCN(CC)c1nc2n(c(=O)n1)CCO2`: inactive: 98%; for `COc1ccc(CCNc2ncnc3c2cnn3-c2ccc(C)cc2)cc1`: inactive: 81%.

For the compound `Fc1ccc(CN2CCc3nc(Nc4ccccc4)ncc3C2)cc1F`, the survival was inactive: 84%. In the case of `CN1C(=O)c2ccccc2Sc2ccc(NC(=O)COc3ccc(F)cc3)cc21`, the survival is inactive: 87%. Regarding `Cc1ccccc1C(=O)Nc1nnc(S(=O)(=O)N2c3ccccc3CC2C)s1` (configuration not stated), the survival is active: 20%. As for `COc1ccc(C2C(=O)N(C3CCCCCC3)CC(=O)N2Cc2ccc(C)cc2)cc1OC` (configuration not stated), the survival is inactive: 73%.

Regarding `Cn1c(SCc2ccccc2)nnc1-c1ccccc1`, the survival is inactive: 93%. Then `Cc1nn(-c2ccccc2)c2nc(C3CC3)cc(C(=O)Nc3ccccc3F)c12`, with inactive: 102%; and `O=C(NCc1ccco1)c1ccc2c(c1)N(Cc1cccc(Cl)c1)C(=O)c1ccccc1S2(=O)=O`, with active: 46%. For the compound `Cc1ccc(CNC(=O)CSc2cc(C)[nH]c(=O)n2)cc1`, the survival was inactive: 83%.

On to `Oc1c(C(c2ccccc2Cl)N2CCCC2)sc2nc(-c3ccco3)nn12` (configuration not stated), for which the survival is inactive: 83%. The same measure for `CCOc1ccc(N(CC(=O)NCc2ccccc2Cl)S(=O)(=O)c2c(C)[nH]c(=O)[nH]c2=O)cc1`: inactive: 66%. Then `COc1ccc(S(=O)(=O)N2CCC(Oc3ccc(-n4cnnn4)cc3)CC2)cc1OC`, with inactive: 77%; and `CCOc1ccc(C(=O)c2cn(Cc3ccccc3OC)c3ccc(F)cc3c2=O)cc1`, with inactive: 94%; and `COc1ccc(-n2c(CC3C(=O)N(C)c4ccc(C)cc43)nc3ccccc3c2=O)cc1` (configuration not stated), with inactive: 99%. Then `CCc1ccc(NC(=O)CN(c2ccc(OC)cc2)S(=O)(=O)c2c(C)[nH]c(=O)[nH]c2=O)cc1`, with inactive: 74%; and `Cc1ccc(SCC(=O)Nc2ccccc2)cc1`, with inactive: 100%. As for `Nc1nc(CN2CCCCC2)cs1`, the survival was inactive: 85%. The same measure for `COc1cc(Cl)c(C)cc1NC(=O)c1ccc2c(Cl)c3c(nc2c1)CCC3`: inactive: 97%; for `CCOc1cccc(CC(=O)N2CCc3c([nH]c4ccccc34)C2c2ccc(Cl)cc2)c1OCC` (configuration not stated): inactive: 77%; for `c1ccc(-n2c(SCCN3CCOCC3)nnc2-c2ccncc2)cc1`: inactive: 77%.

As for `CC1CCN(C(=O)CSc2nc(-c3ccccc3)no2)CC1`, the survival is inactive: 115%. Consider `CC(C)(C)n1nnnc1C(c1ccccn1)N1CCC(Cc2ccccc2)CC1` (configuration not stated), for which the survival was inactive: 75%.

Consider `Cc1ccc2[nH]cc(NC(=O)NCCN(C)C)c(=O)c2c1`, for which the survival is inactive: 100%. The same measure for `Cc1c(NS(=O)(=O)c2ccccc2)cc(C(C)C)c(O)c1S(=O)(=O)c1ccc(Cl)cc1`: inactive: 103%.

For the compound `COc1ccc(C(c2c(O)cc(C)n(Cc3ccco3)c2=O)N2CCCCC2)cc1OC` (configuration not stated), the survival was inactive: 93%. Regarding `Cc1ccc(CN2C(=O)C(O)(c3c[nH]c4ccccc34)c3cc(Cl)ccc32)cc1` (configuration not stated), the survival was active: -3%. Then `COc1cccc(-c2nc(CS(=O)(=O)CC(=O)NCc3ccc(C)cc3)c(C)o2)c1`, with inactive: 61%.

With `CCOc1cc(-c2nc3c(c(CC)nn3-c3ccccc3)c3cc(OC)c(OC)cc23)ccc1O`, the survival was inactive: 58%.

As for `Cc1ccc2c(c1)NC(c1cccnc1)=NC(c1ccc(F)cc1)=N2`, the survival was inactive: 78%. Regarding `Cc1ccc(C)c(NC(=O)Cn2c(=O)n(Cc3ccco3)c(=O)c3oc4ccccc4c32)c1`, the survival is inactive: 59%.

For the compound `COCCNC(=O)c1c(C)oc2nc(C)nc(N3CCOCC3)c12`, the survival was inactive: 91%. On to `COc1ccc(C2c3c(-c4c(C)cc(C)cc4O)n[nH]c3C(=O)N2Cc2ccco2)cc1` (configuration not stated), for which the survival was active: 0%.

For the compound `Cc1cccc(-c2cc3nc4c(c(N5CCN(Cc6ccc7c(c6)OCO7)CC5)n3n2)CCCC4)c1`, the survival was inactive: 100%. The same measure for `CCOC(=O)c1cccc(NC(=O)c2ccc3c(Cl)c4c(nc3c2)CCC4)c1`: active: 41%; for `O=C(NCCCN1CCN(c2ccc(F)cc2)CC1)Nc1ccc(Cl)cc1`: inactive: 72%. In the case of `COc1ccc(C(=O)c2cn(Cc3ccc(F)cc3)c3ccc(C)cc3c2=O)cc1`, the survival was active: 24%. Then `Cc1csc2nc(-c3cccc(NC(=O)c4ccccc4Cl)c3)cn12`, with inactive: 109%. Then `Cc1ccc(-c2nc3ccccn3c2Nc2ccc3c(c2)OCO3)cc1`, with inactive: 73%; and `Cc1ccc(CNC(=O)CCc2c(C)nn(-c3ccc(N4CCCCC4)nn3)c2C)cc1`, with inactive: 93%; and `O=C(NC1CCCCCC1)C1CCN(C(=O)N2CCOc3ccccc32)CC1`, with inactive: 76%.

In the case of `Cc1cccc(OCC(=O)OCc2cc(=O)n3nc(C4CCCCC4)sc3n2)c1`, the survival is inactive: 85%. Then `CCOC(=O)C(CC)n1nc(C)n2c(cc3occc32)c1=O` (configuration not stated), with inactive: 116%; and `COc1ccc(C(=O)COC(=O)c2cccc(NC(=O)c3ccc(OC)c(OC)c3)c2)cc1`, with inactive: 61%; and `O=C(C1CCCN(S(=O)(=O)Cc2ccccc2)C1)N1CCc2ccccc21` (configuration not stated), with inactive: 86%. Then `CCOc1ccc(CNC(=O)c2cc3ccccn3n2)cc1OC`, with inactive: 74%; and `Cn1c(=O)c2c(-c3cccc(Br)c3)n(CCO)cc2n(C)c1=O`, with inactive: 83%; and `CCN1CCN(c2oc(/C=C/c3ccccc3OC)nc2C#N)CC1`, with inactive: 78%. Then `CN(Cc1ccccc1)C(=O)C1CCN(S(=O)(=O)Cc2ccccc2)CC1`, with inactive: 58%. For `O=c1c2cc3c(cc2nc2sc(Nc4ccc(F)c(Cl)c4)nn12)OCO3`, the survival was inactive: 158%. Turning to `Cc1nc(C)c(-c2ccc(SCC(=O)Nc3ccc(F)c(F)c3)nn2)s1`, the survival is inactive: 102%. Then `CC(C)(C)C(=O)NC1CCN(S(=O)(=O)c2ccccc2C(=O)O)CC1`, with inactive: 75%; and `COC(=O)C1=C(C)Nc2ncnn2C1c1ccncc1` (configuration not stated), with inactive: 86%; and `CCOC(=O)/C=C(\C)Nc1cc(-c2ccc(Cl)cc2)[nH]n1`, with inactive: 68%.

`Cc1ccc(NC(=O)c2cc(S(=O)(=O)N3CCCC(C)C3)cn2C)c(Br)c1` (configuration not stated): the survival is inactive: 67%.

Consider `COc1cc(/C=C(\C#N)c2nc3ccccc3n2C)cc(OC)c1OC`, for which the survival is active: 47%. Then `Nc1cccc(-c2cn3ccsc3n2)c1`, with inactive: 81%; and `CNC(=O)/C(C#N)=C/c1cn(CCOc2ccccc2)c2ccccc12`, with inactive: 66%; and `O=S(=O)(c1ccccc1)N1CCN(C2CCCCCCC2)CC1`, with inactive: 89%.

With `COc1ccc(Cn2c(=O)c3cccnc3n(Cc3cccc(OC)c3)c2=O)cc1`, the survival was inactive: 67%. Then `O=C(NC1CC(=O)N(c2cccc(F)c2)C1)C1CC1` (configuration not stated), with inactive: 73%. The same measure for `Cc1ccc(NC(=O)c2oc3ccccc3c2NC(=O)c2ccccc2C)cc1`: inactive: 79%; for `CSc1nnc(NC(=O)Cc2coc3cc(C)ccc23)s1`: inactive: 71%; for `Cc1ccc(-n2c(=O)c3ccc(C(=O)NCc4ccccc4Cl)cc3n(Cc3ccccc3F)c2=O)cc1`: inactive: 84%. Regarding `CCOC(=O)c1c(-c2ccc(C)cc2)csc1NC(=O)c1nc(SCC)ncc1Cl`, the survival was inactive: 84%.

On to `CC1CCN(CCCNC(=O)c2cc(Sc3ccc(F)cc3)nc3ccccc23)CC1`, for which the survival was inactive: 68%. The same measure for `CCc1ccc(CN(Cc2cn[nH]c2-c2ccc(OC)cc2)C(=O)Nc2ccc(C)c(F)c2)cc1`: inactive: 74%. Then `CC(C)(C)NS(=O)(=O)c1ccc(-c2nnc(SCC(=O)c3ccc(F)cc3)o2)cc1`, with inactive: 70%. The same measure for `N#Cc1nc(-c2ccc(COc3ccc(Cl)cc3)o2)oc1N1CCN(c2ccccc2)CC1`: inactive: 64%; for `COc1ccccc1N1CCN(C(=O)c2cc3c(=O)n(Cc4ccco4)ccc3nc2C)CC1`: inactive: 80%; for `Cc1ccc(NS(=O)(=O)c2c(C(=O)N3CCC(C)CC3)c(C)n(C)c2C)cc1Cl`: inactive: 126%. Consider `CCOc1ccc(NC(=O)CCn2cnc3onc(-c4ccc(F)cc4)c3c2=O)cc1`, for which the survival is inactive: 54%. The same measure for `CN1CCC(OC(=O)c2ccco2)CC1`: inactive: 90%; for `O=S(=O)(c1ccccc1)c1nc(-c2cccs2)oc1SCc1ccccc1F`: inactive: 68%. In the case of `CCC(C)(C)C1CCc2c(sc(NC(=O)C3c4ccccc4Oc4ccccc43)c2C(N)=O)C1` (configuration not stated), the survival is inactive: 123%. The same measure for `Cc1ccccc1NC(=O)CCn1cnc2onc(-c3ccc(F)cc3)c2c1=O`: inactive: 109%. In the case of `COCCNC(=O)c1cn(Cc2cccc3ccccc23)nn1`, the survival was inactive: 89%. The same measure for `CCCCC(CC)CNC(=O)C1CCN(S(=O)(=O)c2cccc3nsnc23)CC1` (configuration not stated): inactive: 90%; for `Cc1ccc(C)c(N2CCN(CCCNC(=O)Cn3ncc4c5ccccc5n(C)c4c3=O)CC2)c1`: inactive: 75%; for `O=C(COc1ccccc1)Nc1ncn[nH]1`: inactive: 67%.

`Cc1ccc(Nc2c3c(nc4nncn24)CCC3)cc1C`: the survival is inactive: 55%. As to `Cn1c(=O)cc(SCC(=O)N2CCN(c3ccc(F)cc3)CC2)c2ccc(Cl)cc21`, the survival was inactive: 93%. The same measure for `CC(C)CN1CCc2nc(N3CCN(C)CC3)ncc2C1`: inactive: 83%; for `O=C(CN1C(=O)COc2ccc(S(=O)(=O)N3CCOCC3)cc21)NCc1ccc(F)cc1`: inactive: 86%; for `Cc1ccc(CN2CCSc3ccc(C(=O)N4CCN(c5cc(C)ccc5C)CC4)cc32)cc1`: active: 25%. For `O=C(CSc1nc2c(oc3ccccc32)c(=O)n1-c1ccccc1F)Nc1ccccc1`, the survival is inactive: 112%. The same measure for `c1ccc(-c2nc(N3CCCCC3)nc3ccccc23)cc1`: inactive: 72%.
